Molecular target: T1, LacI-CFP-Nup133 (human, UniProt Q8WUM0 1-1156)
T1 sequence: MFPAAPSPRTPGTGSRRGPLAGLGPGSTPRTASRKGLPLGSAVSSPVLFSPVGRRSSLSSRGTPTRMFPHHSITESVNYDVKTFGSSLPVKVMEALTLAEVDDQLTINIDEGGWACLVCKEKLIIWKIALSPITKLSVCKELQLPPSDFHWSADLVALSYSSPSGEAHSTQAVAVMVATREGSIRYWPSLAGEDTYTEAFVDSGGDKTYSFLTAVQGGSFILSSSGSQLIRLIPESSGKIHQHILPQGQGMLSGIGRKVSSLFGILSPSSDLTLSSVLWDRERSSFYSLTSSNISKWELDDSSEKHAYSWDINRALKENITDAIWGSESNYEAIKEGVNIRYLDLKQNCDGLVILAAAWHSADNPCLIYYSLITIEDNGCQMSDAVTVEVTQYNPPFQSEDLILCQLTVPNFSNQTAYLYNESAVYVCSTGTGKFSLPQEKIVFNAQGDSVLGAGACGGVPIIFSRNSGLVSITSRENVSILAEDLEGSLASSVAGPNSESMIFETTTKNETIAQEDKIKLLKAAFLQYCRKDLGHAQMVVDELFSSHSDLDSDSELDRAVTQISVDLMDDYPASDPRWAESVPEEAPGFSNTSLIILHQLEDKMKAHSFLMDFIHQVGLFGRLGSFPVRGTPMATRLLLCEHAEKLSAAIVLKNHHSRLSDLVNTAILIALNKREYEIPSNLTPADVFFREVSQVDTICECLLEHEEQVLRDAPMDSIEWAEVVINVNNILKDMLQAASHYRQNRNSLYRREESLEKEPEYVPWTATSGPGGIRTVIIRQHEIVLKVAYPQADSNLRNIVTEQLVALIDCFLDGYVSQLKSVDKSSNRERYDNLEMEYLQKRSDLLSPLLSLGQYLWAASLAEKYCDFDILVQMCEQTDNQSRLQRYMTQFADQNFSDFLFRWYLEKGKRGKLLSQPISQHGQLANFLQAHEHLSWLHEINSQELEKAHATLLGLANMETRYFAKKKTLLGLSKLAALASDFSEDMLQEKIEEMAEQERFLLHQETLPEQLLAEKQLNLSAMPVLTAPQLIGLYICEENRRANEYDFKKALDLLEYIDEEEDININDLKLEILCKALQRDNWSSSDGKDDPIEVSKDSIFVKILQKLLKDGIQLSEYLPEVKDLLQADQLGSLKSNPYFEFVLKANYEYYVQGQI
Test: LacI/LacO array recruitment in cells

B1: Pom121 (endogenous) (natural protein)
chain: MSPAAAAAGAGERRRPIASVRDGRGRGCGGPARAVLLGLSLVGLLLYLVPAAAALAWLTVGATAAWWGLSREPRGSRPLSSFVRKARHRRPLSSFVRKARHRRTLFASPLAKSTANGNLLEPRTLLEGPDPAELLLMGSYLGKPGPPQPAAAPEGQDLRDRPGRRPPARPAPRSPPPRSPPPRSPPPSPPTHRAHHVYPSLPTPLLRPSRRPSPRDCGTLPNRFVITPRRRYPIHQAQYSCLGVLPTVCWNGYHKKAVLSPRNSR[about 450 residues not shown]KQSFLFGTQNTSPSSPAAPAASSAPPMFKPIFTAPPKSEKEGPTPPGPSVTATAPSSSSLPTTTSTTAPTFQPVFSSMGPPASVPLPAPFFKQTTTPATAPTTTAPLFTGLASATSAVAPITSASPSTDSASKPAFGFGINSVSSSSVSTTTSTATAASQPFLFGAPQASAASFTPAMGSIFQFGKPPALPTTTTVTTFSQSLHTAVPTATSSSAADFSGFGSTLATSAPATSSQPTLTFSNTSTPTFNIPFGSSAKSPLPSYPGANPQPAFGAAEGQPPGAAKPALAPSFGSSFTFGNSAAPAAAPTPAPPSMIKVVPAYVPTPIHPIFGGATHSAFGLKATASAFGAPASSQPAFGGSTAVFFGAATSSGFGATTQTASSGSSSSVFGSTTPSPFTFGGSAAPAGSGSFGINVATPGSSTTTGAFSFGAGQSGSTATSTPFAGGLGQNALGTTGQSTPFAFNVSSTTESKPVFGGTATPTFGLNTPAPGVGTSGSSLSFGASSAPAQGFVGVAPFGSAALSFSIGAGSKTPGARQRLQARRQHTRKK
  percent of transfected cells showing colocalization: 45%
